{"source": "paper PMC4336329", "about": "(PLoS ONE, 2015)", "note": "In all, about 310,000 compounds went through this assay and about 14,000 (4.5%) showed an effect of 50% or more. The effect is printed as a negative number. This is one part of the list.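 Further: peak tail current of the secondary pulse compared with the same well before compound.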"}
{"molecular_target": "human ether-à-go-go-related gene (hERG) potassium channel (human, UniProt Q12809)", "sequence (Q12809 whole entry, looked up)": "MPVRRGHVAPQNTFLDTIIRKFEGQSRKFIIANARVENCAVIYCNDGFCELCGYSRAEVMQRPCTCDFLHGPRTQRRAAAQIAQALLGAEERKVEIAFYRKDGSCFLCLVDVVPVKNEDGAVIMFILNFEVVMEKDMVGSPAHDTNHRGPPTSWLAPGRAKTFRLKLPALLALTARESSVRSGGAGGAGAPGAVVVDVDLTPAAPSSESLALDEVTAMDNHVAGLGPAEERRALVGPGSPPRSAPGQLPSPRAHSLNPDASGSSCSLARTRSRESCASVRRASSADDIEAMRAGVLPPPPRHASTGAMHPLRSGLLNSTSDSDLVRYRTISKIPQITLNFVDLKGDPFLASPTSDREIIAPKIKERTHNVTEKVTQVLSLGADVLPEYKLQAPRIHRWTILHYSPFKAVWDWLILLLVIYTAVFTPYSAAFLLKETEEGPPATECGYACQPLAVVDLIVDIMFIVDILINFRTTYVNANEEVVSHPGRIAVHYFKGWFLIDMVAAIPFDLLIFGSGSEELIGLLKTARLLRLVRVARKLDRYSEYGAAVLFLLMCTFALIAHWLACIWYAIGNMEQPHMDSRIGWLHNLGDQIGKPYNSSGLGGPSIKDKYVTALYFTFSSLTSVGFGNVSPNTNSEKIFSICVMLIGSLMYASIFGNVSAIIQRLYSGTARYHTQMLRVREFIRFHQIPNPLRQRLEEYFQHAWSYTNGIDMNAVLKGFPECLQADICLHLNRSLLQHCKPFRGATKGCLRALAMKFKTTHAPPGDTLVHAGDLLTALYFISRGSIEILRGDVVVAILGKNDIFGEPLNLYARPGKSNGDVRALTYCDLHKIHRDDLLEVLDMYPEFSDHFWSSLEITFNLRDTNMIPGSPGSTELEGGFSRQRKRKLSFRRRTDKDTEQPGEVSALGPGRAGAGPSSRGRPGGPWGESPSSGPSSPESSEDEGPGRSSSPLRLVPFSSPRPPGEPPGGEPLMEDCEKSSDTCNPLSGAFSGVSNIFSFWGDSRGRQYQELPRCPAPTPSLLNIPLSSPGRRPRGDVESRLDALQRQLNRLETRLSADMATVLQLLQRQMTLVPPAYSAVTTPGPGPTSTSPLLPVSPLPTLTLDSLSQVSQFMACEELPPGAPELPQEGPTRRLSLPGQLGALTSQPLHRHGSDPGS", "assay": "primary screen, population patch clamp on CHO cells stably expressing hERG", "units": {"hERG current change (%, negative = inhibition) at 10uM": "%"}}
{"smiles": "OCC[C@@H]1C[C@H](O)[C@@H](O)[C@]2(OCc3ccccc32)O1", "hERG current change (%, negative = inhibition) at 10uM": 10}
{"smiles": "CC1CCN(CCNC(=O)c2ccc(NC(=O)C3CCCO3)cc2)CC1", "note": "(stereo not drawn)", "hERG current change (%, negative = inhibition) at 10uM": 3.07}
{"smiles": "COc1ccc2c(c1)CC(N1CCN(C)CC1)c1cc(OC)ccc1S2.O=C(O)/C=C\\C(=O)O", "note": "(stereo not drawn)", "hERG current change (%, negative = inhibition) at 10uM": -25.9}
{"smiles": "Cc1ccc(/C=N/NC(=O)CNC(=O)c2ccc(S(=O)(=O)N(C)C)cc2)o1", "hERG current change (%, negative = inhibition) at 10uM": 16.4}
{"smiles": "COc1ccccc1-c1noc2ncnc(Nc3ccc4c(c3)OCO4)c12", "hERG current change (%, negative = inhibition) at 10uM": 3.72}
{"smiles": "Cc1cccc(OC(C)C(=O)Nc2ccc(S(=O)(=O)N3CCCC3)cc2)c1", "note": "(stereo not drawn)", "hERG current change (%, negative = inhibition) at 10uM": -7.85}
{"smiles": "C[C@@H]1CC=C[C@H]2[C@H]1C(=O)N(Cc1ccccc1)[C@H]2c1ccc(F)c(/C=C/c2ccccc2)c1", "hERG current change (%, negative = inhibition) at 10uM": 12.4}
{"smiles": "O=C(CN1C(=O)c2cccc3cccc1c23)Nc1ccccc1C(=O)NCc1ccco1", "hERG current change (%, negative = inhibition) at 10uM": -2.36}
{"smiles": "Cc1ccc(CN2CCCCC2C(=O)Nc2ccc(Oc3cccnc3)cc2)o1", "note": "(stereo not drawn)", "hERG current change (%, negative = inhibition) at 10uM": -19.4}
{"smiles": "CCOC(=O)CC(=O)CSc1nc(C)nc2c1oc1ccccc12", "hERG current change (%, negative = inhibition) at 10uM": 19.7}
{"smiles": "Cc1ccc(SCC(=O)N=C2NC(=O)CS2)cc1", "hERG current change (%, negative = inhibition) at 10uM": 9.66}
{"smiles": "CN(Cc1cccs1)C(=O)COC(=O)CNC(N)=O", "hERG current change (%, negative = inhibition) at 10uM": 1.16}
{"smiles": "COc1ccc(CC2c3cc(OC)c(OC)cc3CCN2C)cc1OC", "note": "(stereo not drawn)", "hERG current change (%, negative = inhibition) at 10uM": -2.23}
{"smiles": "O=S(=O)(c1cccc2nsnc12)N1CCOCC1", "hERG current change (%, negative = inhibition) at 10uM": -0.495}
{"smiles": "CCN(C(=O)COC(=O)CCCN1C(=O)c2cccc3cccc(c23)C1=O)C1CCS(=O)(=O)C1", "note": "(stereo not drawn)", "hERG current change (%, negative = inhibition) at 10uM": -19.3}
{"smiles": "NC(=O)/C(=C/c1ccc2c(c1)OCO2)NC(=O)c1ccco1", "hERG current change (%, negative = inhibition) at 10uM": 14.3}
{"smiles": "Cc1ccc(NC(=O)c2cc(N(C)C)ccc2[P+](=O)O)cc1", "hERG current change (%, negative = inhibition) at 10uM": 8.18}
{"smiles": "CCOc1ccc(S(=O)(=O)N(C)CC(=O)NC2CC2)cc1", "hERG current change (%, negative = inhibition) at 10uM": 2.69}
{"smiles": "C=CCn1c(=O)/c(=C\\c2ccsc2)s/c1=C(/C#N)C(=O)NCCN1CCOCC1", "hERG current change (%, negative = inhibition) at 10uM": -11.8}
{"smiles": "Br.CCOC(=O)/C(=N\\Nc1ccccc1[N+](=O)[O-])c1csc(N)n1", "hERG current change (%, negative = inhibition) at 10uM": 12.6}
{"smiles": "O=C(CNC(=O)c1ccccc1)N/N=C/C=C/c1ccccc1", "hERG current change (%, negative = inhibition) at 10uM": -1.96}
{"smiles": "CC(C)(C)SCCNC(=O)/C=C/c1ccc(F)cc1", "hERG current change (%, negative = inhibition) at 10uM": -2.01}
{"smiles": "CN1CCN(c2ccc(C(CC(N)=O)NC(=O)Cc3cccc4ccccc34)cc2[N+](=O)[O-])CC1", "note": "(stereo not drawn)", "hERG current change (%, negative = inhibition) at 10uM": 9.82}
{"smiles": "O=C1CCCC2=C1C(c1ccccc1)n1c(s/c(=C/c3cccc(F)c3)c1=O)=N2", "note": "(stereo not drawn)", "hERG current change (%, negative = inhibition) at 10uM": 16}
{"smiles": "CN1CCN(NC(=O)c2cc(-c3ccc(Br)s3)nc3ccccc23)CC1", "hERG current change (%, negative = inhibition) at 10uM": -20.3}
{"smiles": "COC(=O)C1CCCCN1C(=O)c1ccc(OC2CCN(C(C)=O)CC2)c(OC)c1", "note": "(stereo not drawn)", "hERG current change (%, negative = inhibition) at 10uM": 15.8}
{"smiles": "CCOC(=O)Cc1csc(SC(C)C(=O)NC2CCCCC2C)n1", "note": "(stereo not drawn)", "hERG current change (%, negative = inhibition) at 10uM": -1.29}
{"smiles": "O=C(Nc1ccc(F)c(Cl)c1)N1CCCC1", "hERG current change (%, negative = inhibition) at 10uM": 5.93}
{"smiles": "COc1cc2c(cc1O)CC1c3c(cc(O)c(OC)c3-2)CCN1C", "note": "(stereo not drawn)", "hERG current change (%, negative = inhibition) at 10uM": -59.2}
{"smiles": "[O-][n+]1onc2c3cc(-c4ccccc4)nnc3ccc21", "hERG current change (%, negative = inhibition) at 10uM": 12.7}
{"smiles": "Cc1ccccc1C(=O)N1CCC(C(=O)Nc2ccccc2Cl)CC1", "hERG current change (%, negative = inhibition) at 10uM": 9.73}
{"smiles": "CNC(=O)c1nc(C)n(-c2cc(Cl)ccc2Cl)n1", "hERG current change (%, negative = inhibition) at 10uM": 21.9}
{"smiles": "COc1ccc(NC(=S)NCc2cccnc2)cc1OC", "hERG current change (%, negative = inhibition) at 10uM": 5.8}
{"smiles": "Cc1ccc(NC(=S)NCCCN2CCOCC2)cc1", "hERG current change (%, negative = inhibition) at 10uM": 12.6}
{"smiles": "COc1ccc(CNC2CCCC2)c(OC)c1OC", "hERG current change (%, negative = inhibition) at 10uM": -6.2}
{"smiles": "CCc1ccccc1NC(=O)Cc1cn(C)c2ccccc12", "hERG current change (%, negative = inhibition) at 10uM": 3.59}
{"smiles": "CCCC[C@H]1COCCS(=O)(=O)N1Cc1ccc(Br)cc1", "hERG current change (%, negative = inhibition) at 10uM": -36.4}
{"smiles": "CCc1cc2c(COC(=O)c3cccc(NS(C)(=O)=O)c3)cc(=O)oc2cc1O", "hERG current change (%, negative = inhibition) at 10uM": 16}
{"smiles": "Cc1cc(C)cc(NC(=O)C(=S)NCc2ccccc2)c1", "hERG current change (%, negative = inhibition) at 10uM": 7.58}
{"smiles": "COc1cccc(C(=O)COC(=O)COc2c(C)cc(C)cc2C)c1", "hERG current change (%, negative = inhibition) at 10uM": 1.18}
{"smiles": "Br.COc1cccc(CNCC2CCCO2)c1", "note": "(stereo not drawn)", "hERG current change (%, negative = inhibition) at 10uM": 13.9}
{"smiles": "CC(=O)OCCN1CCN(C(=O)CN2C(=O)NC(c3ccccc3)(c3ccccc3)C2=O)CC1", "hERG current change (%, negative = inhibition) at 10uM": 9.86}
{"smiles": "CC(=O)N1CCN(S(=O)(=O)c2cccc(C(=O)Nc3nc4c(s3)CCCC4)c2)CC1", "hERG current change (%, negative = inhibition) at 10uM": -39.9}
{"smiles": "CCN(Cc1ccccc1)C(c1cc2cc(C)cc(C)c2[nH]c1=O)c1nnnn1CCOC", "note": "(stereo not drawn)", "hERG current change (%, negative = inhibition) at 10uM": 3.76}
{"smiles": "O=C(CSc1nnc2ccc(-c3ccncc3)nn12)c1cccs1", "hERG current change (%, negative = inhibition) at 10uM": -35.2}
{"smiles": "COc1ccc(NCc2nnc(SCC(=O)c3ccc(OC)cc3)o2)cc1", "hERG current change (%, negative = inhibition) at 10uM": -13.6}
{"smiles": "O=C(NN=C1CCCCCCCCCCC1)c1ccncc1", "hERG current change (%, negative = inhibition) at 10uM": 0.505}
{"smiles": "CC1CCCCN1C(=O)COC(=O)/C=C/c1ccc2ccccc2n1", "note": "(stereo not drawn)", "hERG current change (%, negative = inhibition) at 10uM": 11}
{"smiles": "COc1ccc(/C=N/NC(=O)c2cnccn2)c(OC)c1OC", "hERG current change (%, negative = inhibition) at 10uM": 6.4}
{"smiles": "CCOCCCNC(=O)C(c1ccc(Cl)cc1)N1CCC2(CC1)OCCO2", "note": "(stereo not drawn)", "hERG current change (%, negative = inhibition) at 10uM": 8.73}
{"smiles": "C/C(=N\\OCC(=O)N/N=C/c1ccccc1O)c1cccs1", "hERG current change (%, negative = inhibition) at 10uM": -8.52}
{"smiles": "N#CCc1ccc(C(=O)c2ccccc2F)s1", "hERG current change (%, negative = inhibition) at 10uM": 3.64}
{"smiles": "O=C(Cn1cnc2ccccc21)Nc1ccccc1-c1ccccc1", "hERG current change (%, negative = inhibition) at 10uM": 9.15}
{"smiles": "COc1ccc2nc(-c3ccccc3)nc(C3CCCCC3)c2c1", "hERG current change (%, negative = inhibition) at 10uM": 13.3}
{"smiles": "O=C(O)CSCC(=O)Nc1cc(C(F)(F)F)ccc1Cl", "hERG current change (%, negative = inhibition) at 10uM": 1.71}
{"smiles": "O=C(NCCCO)c1cc2c([nH]c3ccccc32)c(-c2ccc(F)cc2)n1", "hERG current change (%, negative = inhibition) at 10uM": -47.2}
{"smiles": "Cc1oc(-c2cccs2)nc1CN1CC[C@@](O)(c2ccccc2)[C@H]2CCCC[C@@H]21", "hERG current change (%, negative = inhibition) at 10uM": 11.8}
